Assay results from patent US20080075796A1, “Compositions and Methods for Controlling Insects” (TyraTech, Inc., priority 2003, published 2008).

Biological target: T1, tyramine receptor (TyrR) (Drosophila melanogaster, UniProt P22270)
T1 sequence (P22270 27-601): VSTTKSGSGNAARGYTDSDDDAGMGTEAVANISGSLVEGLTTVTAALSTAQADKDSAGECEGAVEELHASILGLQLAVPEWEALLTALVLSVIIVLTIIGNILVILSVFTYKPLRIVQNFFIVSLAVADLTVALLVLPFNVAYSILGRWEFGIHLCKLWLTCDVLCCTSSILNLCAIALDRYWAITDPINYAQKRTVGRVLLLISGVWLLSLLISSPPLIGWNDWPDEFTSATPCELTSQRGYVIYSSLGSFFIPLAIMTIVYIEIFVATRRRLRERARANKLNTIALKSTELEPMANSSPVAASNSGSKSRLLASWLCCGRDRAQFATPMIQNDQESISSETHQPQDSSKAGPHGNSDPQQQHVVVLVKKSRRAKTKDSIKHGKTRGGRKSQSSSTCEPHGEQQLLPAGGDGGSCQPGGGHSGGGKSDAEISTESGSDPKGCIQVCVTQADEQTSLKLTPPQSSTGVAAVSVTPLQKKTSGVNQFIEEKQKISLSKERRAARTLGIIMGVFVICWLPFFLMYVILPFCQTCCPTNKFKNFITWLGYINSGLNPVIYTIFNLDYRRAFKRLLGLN
Conditions: displacement of about 2 nM ^3H-tyramine

NCCc1c[nH]c2ccc(O)cc12 [Serotonin (SE), Serotonin]
pEC50 (EC50 (concentration at which binding is inhibited by 50%)): 4.63
pKi (Ki): 5.05

pEC50, pKi: −log10 of the molar value.
